Measurements as given in paper PMC4336329 (PLoS ONE, 2015).
Out of some 310,000 compounds screened, about 14,000 (4.5%) showed an effect of 50% or more. The effect is printed as a negative number. Some of the results follow.

The compounds below were run against human ether-à-go-go-related gene (hERG) potassium channel (human, UniProt Q12809) (assay: primary screen, population patch clamp on CHO cells stably expressing hERG).
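Further: peak tail current of the secondary pulse compared with the same well before compound.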

human ether-à-go-go-related gene (hERG) potassium channel, sequence (Q12809 whole entry, looked up): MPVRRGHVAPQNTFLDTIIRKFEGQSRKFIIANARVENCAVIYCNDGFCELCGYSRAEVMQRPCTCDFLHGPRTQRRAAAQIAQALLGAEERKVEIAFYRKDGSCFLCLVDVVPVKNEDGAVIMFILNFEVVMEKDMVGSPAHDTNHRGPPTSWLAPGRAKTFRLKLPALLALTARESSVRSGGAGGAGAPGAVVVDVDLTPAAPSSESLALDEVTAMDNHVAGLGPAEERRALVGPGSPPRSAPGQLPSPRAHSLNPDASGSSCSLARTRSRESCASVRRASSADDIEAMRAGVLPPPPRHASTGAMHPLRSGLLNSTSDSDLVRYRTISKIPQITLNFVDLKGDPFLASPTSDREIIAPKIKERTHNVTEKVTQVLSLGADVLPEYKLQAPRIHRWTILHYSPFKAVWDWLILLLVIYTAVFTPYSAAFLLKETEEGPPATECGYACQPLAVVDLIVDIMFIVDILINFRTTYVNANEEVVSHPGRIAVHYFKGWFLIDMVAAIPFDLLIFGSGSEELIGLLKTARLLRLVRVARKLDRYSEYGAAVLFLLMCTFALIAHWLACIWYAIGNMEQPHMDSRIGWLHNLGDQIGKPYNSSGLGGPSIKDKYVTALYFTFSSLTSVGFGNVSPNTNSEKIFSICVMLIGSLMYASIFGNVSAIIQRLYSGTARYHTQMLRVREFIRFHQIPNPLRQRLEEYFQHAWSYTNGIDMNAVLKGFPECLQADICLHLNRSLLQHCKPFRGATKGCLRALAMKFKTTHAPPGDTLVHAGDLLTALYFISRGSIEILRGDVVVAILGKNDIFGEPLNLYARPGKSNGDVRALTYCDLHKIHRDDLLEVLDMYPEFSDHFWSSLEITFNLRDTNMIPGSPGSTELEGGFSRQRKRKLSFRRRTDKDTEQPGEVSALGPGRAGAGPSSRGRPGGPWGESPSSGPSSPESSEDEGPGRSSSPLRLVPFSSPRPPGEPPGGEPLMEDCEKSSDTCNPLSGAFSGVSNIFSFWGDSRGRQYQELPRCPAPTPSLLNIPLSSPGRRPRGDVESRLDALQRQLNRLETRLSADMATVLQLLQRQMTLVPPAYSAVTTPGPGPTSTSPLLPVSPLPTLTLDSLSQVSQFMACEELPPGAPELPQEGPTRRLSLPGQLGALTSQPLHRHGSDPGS

Structure (SMILES) | hERG current change (%, negative = inhibition) at 10uM [%]
CCOc1ccccc1CNC(=O)c1nn(CC)cc1[N+](=O)[O-] | 9.07
Clc1ccc(-n2c(SCc3nc4ccccc4[nH]3)nnc2-c2ccncc2)cc1 | -39.3
O=C(COc1ccc2c3c(c(=O)oc2c1)CCC3)NC1CCCCC1 | 4.83
O=C1CC(c2cccs2)Sc2nc3ccccc3n21 (centres unmarked) | 4.02
Cc1ccc(N2C(=O)CCC2=O)c(C)c1 | 7.49
COc1ccccc1NC(=O)Cc1nnc(SCC(=O)NC2=NCCS2)n1C | 8.56
CN(CC(=O)Nc1ccc(Cl)cc1)c1ccc(S(=O)(=O)N2CCCCC2)cc1[N+](=O)[O-] | -16.7
O=C(CSc1nc2ccccc2o1)Nc1nccs1 | 9.44
O=C(O)C(=O)O.c1ccc(-c2ccccc2OCCCN2CCOCC2)cc1 | -37.1
Cc1nc2ccc(C(=O)O)cc2c2c1CC(C)S2 (centres unmarked) | -16
CCC1(C)Cc2c(sc3[nH]c(=O)[nH]c(=O)c23)CS1 (centres unmarked) | 3.94
Cc1cccc(-c2cc3nc(C)cc(C)n3n2)c1 | 2.6
COc1ccc(/C=C(\NC(=O)c2cccs2)C(=O)NCc2ccco2)cc1OC | 2.74
CC1(C)CC(=O)C(C=NCCN2CCNC2=O)=C(O)C1 | 18.4
O=C(COc1cccc(F)c1)N1c2ccccc2Sc2ccccc21 | 7.13
COc1ccc(C(=O)N[C@H]2COC(C)(C)O[C@H]2c2ccccc2)cc1 | 2.9
NC(=O)C1CCN(C(=O)CSc2nc3ccccc3[nH]2)CC1 | 4.06
Clc1cccc(Cl)c1Cn1cnc(=NCc2ccco2)c2[nH]cnc21 | -14.2
CCCC(=O)Nc1ccc(C(=O)n2nnc3ccccc32)cc1 | 19.5
O=C(NCc1ccccc1Cl)c1ccc(Cn2cc(C(F)(F)F)ccc2=O)cc1 | -24
COc1ccc(C(=O)Nc2cc3c(cc2C(=O)O)OCCCO3)c(OC)c1 | -37.2
CC(C)(C)n1nc2c(c1NC(=O)c1ccc(F)c(F)c1)CS(=O)(=O)C2 | 3.79
CC(C)NC(=O)c1ccc(-n2c(=S)[nH]c3ccccc3c2=O)cc1 | 27.1

Structure (SMILES) | hERG current change (%, negative = inhibition) at 10uM [%]
O=C(CCN1C(=O)COc2ccccc21)NCc1cccnc1 | 6.28
COc1ccc(OC)c(-c2cc(C(=O)NCCCn3ccnc3)no2)c1 | -13.2
Cc1ccc(NC(=O)c2ccc(-c3nn(C)c(=O)c4ccccc34)cc2)cc1 | -15.7
CCc1nc2ccccc2c(C(=O)OCC(=O)NCc2ccc3c(c2)OCO3)c1C | -15.6
CCOc1ccccc1CNC(=O)CCNS(=O)(=O)c1ccc2[nH]c(=O)oc2c1 | -2.89
O=C(COCc1nc2ccccc2c(=O)[nH]1)NC1CCCC1 | -2.39
COc1ccc(C(=O)Nc2ccc(N3CCN(C)CC3)cc2)cc1[N+](=O)[O-] | -38.5
CCN(CC)CCN(Cc1cc2cc3c(cc2[nH]c1=O)OCCO3)C(=S)NCC1CCCO1 (centres unmarked) | -4.28
C=CCn1c(C)cc(C(=O)CSc2nnc(Cc3ccccc3)o2)c1C | 4.19
Cc1ccc2oc(=O)c3cc(C(=O)NCCCN4CCCCCC4)sc3c2c1 | -40.2
CC(OC(=O)/C=C/c1cccc(C(F)(F)F)c1)C(=O)NC1CCCCC1C (centres unmarked) | 17.3
COc1cccc(CNC(=O)CCN2C(=S)NC(C)(C)CC2C)c1 (centres unmarked) | 6.18
COc1cc(OC)cc(-c2nc(-c3ccccc3OC)no2)c1 | 1.48
CCCOc1ccc(C(=O)NCC(c2cccs2)N(C)C)cc1OC (centres unmarked) | -46.4
CC(C)OC12Oc3ccccc3C=C1N1CCC2CC1 (centres unmarked) | 0.566
c1csc(-c2nnc(COc3ncnc4sccc34)o2)c1 | -7.68
CCc1nc(SC)[nH]c(=O)c1C | 4.37
COc1ccc(N=C(C)c2c(O)n(C)c(=O)n(C)c2=O)c(OC)c1 | -3.03
COc1ccc(Cc2nnc(Nc3c(C)cccc3C)o2)cc1OC | 8.5
COC(=O)c1cccc(Cn2c(Cl)c(/C=N/NC(=O)c3ccco3)sc2=O)c1 | 10.4
NC(=O)c1ccsc1NC(=O)COC(=O)C1CCCN1C(=O)c1cccs1 (centres unmarked) | -63
Cc1cc(C)c(S(=O)(=O)Nc2ccc(N3CCOCC3)cc2)c(C)c1 | 10.3
Cc1cc(=O)n2nc(N3CCCC(C(=O)N4CCc5ccccc54)C3)sc2n1 (centres unmarked) | -11.3

Structure (SMILES) | hERG current change (%, negative = inhibition) at 10uM [%]
Clc1ccccc1C1=Nn2c(nnc2-c2ccncc2)SC1 | 1.59
CC1CCN(C(=O)CSc2nnc(Cn3c(=O)sc4ccccc43)n2C)CC1 | -10.3
COc1ccc(Oc2cccc(Cl)c2CNC(=O)CCCC(=O)O)cc1 | 6.59
Brc1cccc(OCCSc2ncccn2)c1 | 18.4
COc1ccc(C(=O)Nc2nc(N3C(=O)c4ccccc4C3=O)n(-c3ccccc3)n2)cc1 | -12.8
Cc1c(C(=O)NCCCN2CCOCC2)sc2nc(-c3ccccc3)cn12 | -48.5
C/C(=N\NC(=O)c1ccccc1O)C1CC1 | -62.2
Cc1ccc(SCC(=O)NCc2cccnc2)cc1 | 0.576
CCn1cc(Br)c(C(=O)Nc2ccc(F)cc2F)n1 | 0.281
O=C(CCC(=O)N1C[C@H]2C[C@@H](C1)c1cccc(=O)n1C2)NCc1ccccc1 | 5.03
O=C(COC(=O)C12CC3CC(CC(Br)(C3)C1)C2)NNC(=O)c1ccccc1 | -10.8
O=C(COc1ccc(Cl)cc1)NCCNc1ccc([N+](=O)[O-])cc1 | -40.6
O=C(NC(Nc1nc2ccc([N+](=O)[O-])cc2s1)(C(F)(F)F)C(F)(F)F)c1ccccc1 | -6.48
CC(C)Cc1cc(C(=O)Nc2ccc(Br)cc2)no1 | 8.77
COc1cccc(-c2nc(CS(=O)(=O)CC(=O)NCCCN3CCN(C)CC3)c(C)o2)c1 | 3.5
Cc1ccc(OS(=O)(=O)c2c(C)nn(C)c2Cl)c(C)c1 | 5.59
COc1cc(NC(=O)CCCSc2nc(-c3ccco3)cc(C(F)(F)F)n2)cc(OC)c1OC | 5.83
CC(=O)N1CCN(CC(=O)Nc2ccc([N+](=O)[O-])cc2Br)CC1 | -75.3
C=CCn1c(SCC(=O)NC2CCCC2)nc2scc(-c3ccco3)c2c1=O | 9.66
CCC(C)NC(=O)CS(=O)Cc1nc(-c2ccccc2C)oc1C (centres unmarked) | 12.2
Cc1cccc(OCC(=O)NC(=S)Nc2ccccc2N2CCOCC2)c1C | -0.0458
Cc1[nH]c2ccccc2c1C(=O)C(=O)N1CC2CC(C1)c1cccc(=O)n1C2 (centres unmarked) | -6.49
O=C(O/N=C\c1ccc(N2CCCCC2)c([N+](=O)[O-])c1)c1c(F)cccc1F | 14.6

Structure (SMILES) | hERG current change (%, negative = inhibition) at 10uM [%]
Brc1c(CSc2nncc3ccccc23)nc2ccccn12 | -12.2
Cc1cc(C)nc(SCc2cc(=O)c(OC(=O)c3ccc(Br)o3)co2)n1 | -4.35
O=C(CCNS(=O)(=O)c1ccccc1C(F)(F)F)N1CCN(C(c2ccccc2)c2ccccc2)CC1 | 1.61
Cc1ccc(SCCNC(=S)Nc2ccc(C)c(C)c2)cc1 | 11.9
O=C(Cc1ccccc1)N1CCN(c2ccc([N+](=O)[O-])cc2)CC1 | -55.2
CCC(C)Oc1nc2c(c(=O)n(C)c(=O)n2C)n1C (centres unmarked) | 10.1
Cc1nn(Cc2ccc(Cl)cc2)c(C)c1NC(=O)c1cc(C(C)C)on1 | 5.88
COc1cc2cc(C(=O)N3CCC(Cc4ccccc4)CC3)[nH]c2cc1OC | 17.4
Cc1cc(C)c(S(=O)(=O)Cc2ccccc2)c(OC(C)C)n1 | -18.4
O=C(O)CSc1nnc(-c2ccc3c(c2)OCO3)n1-c1ccccc1 | 13.5
COCCCNc1nc2c(c(=O)[nH]c(=O)n2C)n1CC(O)COc1cccc(C)c1 (centres unmarked) | -2.66
CCOc1ccc(NC(=O)c2ccc(C#CC(C)(C)O)cc2)cc1 | 9.67
Cc1ccc(/C=N/n2c(-c3ccncc3)n[nH]c2=S)s1 | 21.9
CCC(Oc1ccccc1OC)C(=O)Nc1ccc2c(c1)OCO2 (centres unmarked) | -5.32
N#Cc1ccc(N2C(=O)[C@@H]3C(C(=O)c4cnccn4)=NN[C@@H]3C2=O)cc1 | 12
COc1ccc(CN2CCOCC2)cc1OC | 3.03
Cc1c(NC(=O)c2ccc3nsnc3c2)cccc1[N+](=O)[O-] | 12.9
COC(=O)Nc1ccc(S(=O)(=O)NNC(=O)c2c(O)c3ccccc3n(C)c2=O)cc1 | 25.9
O=C(CN1C(=O)NC(c2ccccc2)(c2ccccc2)C1=O)NCC(=O)Nc1ccc(F)cc1 | 2.12
O=C1N=C(N2CCc3ccccc3C2)S/C1=C\c1ccc(O)cc1 | -20.8
